Measurements reported in the RNAGym collection of RNA variant scans (doi:10.7554/elife.90254).
Read counts are not given, so values of variants with three or more changes are uncertain.

B1: OR4K15 (parent)
chain: GUUAACGGUCAUAGGCCAUGGAAACUAGGAGCACCAUUUCGCUGCCAGUGAAGAAAUGAACAAAGAAAAUCUGGGCCAGGCAGGCAUCAAAAGAAAUAGUCUUGCGCUCAACCAGAAAGUCUGUAAUCAUUUUAAGGGUA

Variants of: B1
Assay: self-cleavage, relative activity (ratio to wild type); higher = more cleavage; in vitro, sequencing; the parent is a self-cleaving ribozyme

Row | Variant | self-cleavage
1 | U49C A94G A96G A98U U127C | 2.08
2 | A47G A86U G93U A96G | 2.8
3 | U49C A62G A92G C107A A114G U120A | 0.03
4 | A47U A54G A55G A135U | 1.28
5 | A47G A54G U102A G136A U139C | 0.86
6 | U49A U132A A135G | 1.04
7 | A47U U49A A111G | 0.01
8 | U49A A67G A94G | 1.17
9 | A47G A56G A62U A94G U127C | 1.01
10 | U49C A117G U132C | 2.27
11 | U49A A56G A90G | 0.81
12 | A47U A62G A96G | 0.71
13 | A47U A63U A140G | 1.39
14 | A47G A55G A78G A90G | 0.13
15 | U49C A95G U132C | 0.83
16 | C46U A69G A78C A86G G93U U120C | 0.15
17 | U49C C107A A114G U132C | 0.01
18 | A51G A59G A67U A118G | 0.89
19 | C46U A52G U70C U132C | 0.76
20 | U49C A78U A98U A111G | 0.01
21 | G44A A59G A78U | 0.34

Row | Variant | self-cleavage
22 | A47G A89G U103C C105A A110U G138A | 0.01
23 | A51G A59G A135C | 0.97
24 | C45U A47G A134G | 1.09
25 | A47G A56G A116C | 0.06
26 | A47G U49C U130C | 0.51
27 | U49A U108C U132C | 0.01
28 | A47U A63G G74A A110G | 0.04
29 | G44A A64U A67U A95U C107U | 0.02
30 | A47U A89U U124C A126G | 0.09
31 | A47U A54G C128U | 0.48
32 | A47C A60C A117G | 2.45
33 | G48U A92G C128A | 1.01
34 | A47G A51C U57A | 0.76
35 | U49C A89G A114U | 0.15
36 | U49C A59G U87A | 1.41
37 | G48U A78G A96G | 0.12
38 | G44A U72A U102A | 0.19
39 | U49G A94G U100A | 0.36
40 | A47U A68U U100A | 0.41
41 | G44A A67G U72C A111G | 0.01
42 | U49C U70A A78U U122C | 0.04

Row | Variant | self-cleavage
43 | U49A U97C U127C | 0.6
44 | U49C G74A A82C | 0.19
45 | U49A A59G U102C | 1.54
46 | U49C A54G G83A A114G | 0.67
47 | U43G U49C U87C A92G U131C A135U | 1.02
48 | A51G A56U U103C | 0.46
49 | G50A A54G U87C | 1.23
50 | A51G A67G A69C U122C U124C | 0.97
51 | A47U A60G A69G | 0.38
52 | U49C A92G A110U A111G A118G | 0
53 | U49C A94G A111G | 0.01
54 | A51G A54G C88A | 2.19
55 | A51G A52G A54U A110G | 0.18
56 | A47U U72C U127C A134G | 0.02
57 | U49C A56G A63G U108C | 0
58 | A47C A55G U87A A92C | 0.63
59 | U49C A69G A91G A94G A110C | 0.13
60 | U49C A67G U87C U108C | 0
61 | A47C U103C A129G | 0.3
62 | U49A A60G A67U C76U U120C U127A | 0.1
63 | A47U A60G U100C U102C A114G A117G | 0.3

Row | Variant | self-cleavage
64 | U49A A89G A110G | 0.04
65 | A47G A114U C121U A134G | 0.05
66 | A47G C101U A114G U139C | 0.05
67 | A47G G50U U97C | 1
68 | C46U A60U A78G | 0.6
69 | U49A G75C A78G A96G G138A | 0.15
70 | A47G A66G A96G A117G | 1.03
71 | U49C A94G U100G A117G U122C | 1.77
72 | A47C A82G A126G | 0.08
73 | G48A A63G A89G A135G | 0.9
74 | A47G A59G A64U | 0.77
75 | U49A A63G U87A | 0.6
76 | A47U A64G A67G U132A A134G G138A | 0.36
77 | A47C A55G A129U | 1.26
78 | A51G A54G U57C A64G | 0.93
79 | U49C U72C A91G C113U | 0.02
80 | A47G A51G A94G A110G | 0.17
81 | C46A A111G A117G | 0.01
82 | A47U A51G A94G U108C | 0.01
83 | G44A A47U A86U A110U | 2.47
84 | U49C U70A A90G | 0.62
